SMILES strings stand for the structures. Counter-ions that a name gives are not always drawn. ± gives the standard deviation of the averaged measurements. This is one part of the list. Most values come without repeats; read them as rough.

This test deals with OVCAR4. Briefly: log2 surviving fraction relative to plate median (drug vs vehicle, or drug+dl922-947 vs dl922-947 alone); ovarian cancer lines: OVCAR4 is platinum-sensitive while Ov4Cis resists cisplatin and Ov4Carbo carboplatin; higher = more cell survival. Particulars: dl922-947 oncolytic adenovirus co-treatment: MOI 10; compound concentration: 10 uM; 192 h.
Turning to `CC1CNc2c(cccc2S(=O)(=O)N[C@@H](CCCNC(=N)N)C(=O)N2CC[C@@H](C)C[C@@H]2C(=O)O)C1` (some centres undefined) [Argatroban], the log2 surviving fraction was 0.845 ± 0.44.

For the compound `O=c1c(-c2ccc(O)cc2)coc2cc(O)ccc12` [Daidzein], the log2 surviving fraction was 0.226 ± 0.26. As for `COc1cc2nc(N3CCN(C(=O)C4CCCO4)CC3)nc(N)c2cc1OC` (centres undefined) [Terazosin HCl (Hytrin)], the figure is 0.4 ± 0.58; as for `O=C(O)CCc1nc(-c2ccccc2)c(-c2ccccc2)o1` [Oxaprozin], 0.765 ± 1.1; as for `CCC[C@H](NC(=O)[C@@H]1[C@H]2CCC[C@H]2CN1C(=O)[C@@H](NC(=O)[C@@H](NC(=O)c1cnccn1)C1CCCCC1)C(C)(C)C)C(=O)C(=O)NC1CC1` [Telaprevir (VX-950)], -0.732 ± 0.89. As for `COC(=O)C1=C(C)NC(C)=C(C(=O)OC)C1c1ccccc1[N+](=O)[O-]` [Nifedipine (Adalat)], the figure is -0.0633 ± 0.1; as for `COc1ccc2c(c1)C(=O)N(CCc1ccc(S(=O)(=O)NC(=O)NC3CCCCC3)cc1)C(=O)C2(C)C` [Gliquidone], 0.217 ± 0.72; as for `OC(Cn1cncn1)(Cn1cncn1)c1ccc(F)cc1F` [Fluconazole], 0.329 ± 0.83. As for `C[C@@H](O)[C@H]1C(=O)N2C(C(=O)O)=C(S[C@@H]3CN[C@H](CNS(N)(=O)=O)C3)[C@H](C)[C@H]12` [Doripenem Hydrate], the figure is 0.275 ± 0.25. As for `CN1[C@@H]2C[C@@H](OC(=O)[C@H](CO)c3ccccc3)C[C@H]1[C@@H]1O[C@@H]12` [Scopolamine hydrobromide], the log2 surviving fraction was determined as 0.288 ± 0.65.

In the case of `CCCCCCOC(=O)NC(=N)c1ccc(NCc2nc3cc(C(=O)N(CCC(=O)OCC)c4ccccn4)ccc3n2C)cc1` [BIBR-1048 (Dabigatran)], the log2 surviving fraction is -0.914 ± 1.6. On to `Clc1ccc(CSC(Cn2ccnc2)c2ccc(Cl)cc2Cl)cc1` (centres undefined) [Sulconazole Nitrate], for which the log2 surviving fraction is -1.65 ± 0.75. As for `CC(C)(O)c1ccccc1CC[C@@H](SCC1(CC(=O)O)CC1)c1cccc(/C=C/c2ccc3ccc(Cl)cc3n2)c1` [Montelukast Sodium], the figure is -0.59 ± 0.47. As for `CC(C)CN(C[C@@H](O)[C@H](Cc1ccccc1)NC(=O)O[C@H]1CO[C@H]2OCC[C@H]21)S(=O)(=O)c1ccc(N)cc1` [Darunavir Ethanolate (Prezista)], the figure is -0.223 ± 0.39; as for `CN1C[C@@H]2C[C@H]1CN2c1cc2c(cc1F)c(=O)c(C(=O)O)cn2C1CC1` [Danofloxacin Mesylate], -0.289 ± 0.21; as for `CC(=O)O[C@H]1C(=O)[C@@]2(C)[C@H]([C@H](OC(=O)c3ccccc3)[C@]3(O)C[C@H](OC(=O)[C@H](O)[C@@H](NC(=O)c4ccccc4)c4ccccc4)C(C)=C1C3(C)C)[C@]1(OC(C)=O)CO[C@@H]1C[C@@H]2O` [Paclitaxel (Taxol)], -5.35 ± 0.55.

Take `CC[C@]1(O)C[C@@H]2CN(CCc3c([nH]c4ccccc34)[C@@](C(=O)OC)(c3cc4c(cc3OC)N(C)[C@H]3[C@@](O)(C(=O)OC)[C@H](OC(C)=O)[C@]5(CC)C=CCN6CC[C@]43[C@@H]65)C2)C1` [Vinblastine]: the log2 surviving fraction is 0.156 ± 0.13. As for `COC(=O)C1=C(C)NC(C)=C(C(=O)OCC(C)C)C1c1ccccc1[N+](=O)[O-]` (centres undefined) [Nisoldipine (Sular)], the figure is -1.65 ± 0.54; as for `Nc1c2c(nc3ccccc13)CCCC2` [Tacrine HCl], -0.305 ± 0.85; as for `COc1cc(C(C)=O)ccc1OCCCN1CCC(c2noc3cc(F)ccc23)CC1` [Iloperidone (Fanapt)], 0.00183 ± 0.66. As to `CCOC(=O)c1cncn1[C@H](C)c1ccccc1` [Etomidate], the log2 surviving fraction was -0.195 ± 1.3. With `CCCCN(CCCC)CCCOC(=O)c1ccc(N)cc1` [Butacaine] the figure was 0.312 ± 0.34.

Take `CCCCc1ncc(/C=C(\Cc2cccs2)C(=O)O)n1Cc1ccc(C(=O)O)cc1` [Eprosartan Mesylate]: the log2 surviving fraction was -0.259 ± 0.73. With `Cc1ncc([N+](=O)[O-])n1CC(C)O` (centres undefined) [Secnidazole (Flagentyl)] the figure was -0.247 ± 0.24; with `O=c1cc[nH]c(=S)[nH]1` [2-Thiouracil], 0.243 ± 0.47. With `Cc1cc(C#N)cc(C)c1Oc1nc(Nc2ccc(C#N)cc2)nc(N)c1Br` [Etravirine (TMC125)] the figure was -1.31 ± 1.1; with `CCOC(=O)N1CCC(=C2c3ccc(Cl)cc3CCc3cccnc32)CC1` [Loratadine], 0.12 ± 0.57. As for `Cc1nnc(NS(=O)(=O)c2ccc(N)cc2)s1` [Sulfamethizole (Proklar)], the figure is 0.533 ± 0.42; as for `CC(C)(C)NC(=O)[C@H]1CC[C@H]2[C@@H]3CC[C@H]4NC(=O)C=C[C@]4(C)[C@H]3CC[C@]12C` [Finasteride], 0.894 ± 0.12.

For the origin of these results see the supplement of paper PMC8813932.
